Assay results from PubChem BioAssay AID1030 (National Center for Advancing Translational Sciences (NCATS), 2008).
Several values for one entry are separate records, joined by “and”; a condition that tells them apart may be missing. Identical values can stand only once. About 16,000 (7.3%) of roughly 220,000 compounds were called active. The shares of active, inactive and inconclusive entries below differ from those in the screen. Calls follow the shape of the dose curve; as a rule, active = well fitted inhibition curve with a large enough effect (not every such curve was filed as active); inconclusive = small, poorly fitted or top-dose-only effect, or another doubt; inactive = no such curve, though single readings can be large or run the other way. Potencies beside an inconclusive call are fits to weak or partial responses and may not hold up.

Biological target: Aldehyde dehydrogenase 1A1 (Homo sapiens) (UniProt P00352)
Experiment: qHTS Assay for Inhibitors of Aldehyde Dehydrogenase 1 (ALDH1A1);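 as to activity, negative = inhibition: plate controls were no enzyme wells and a reference inhibitor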
Conditions: Purified ALDH1A1, NADH fluorescence, propionaldehyde substrate; series mostly up to 75.3 µM; activity, negative = inhibition: at the top concentration
Potency is read from the fitted curve at half-maximal effect; tags tell the direction and shape of the fitted curve.

Sequence of UniProt P00352 (P00352 whole entry, looked up): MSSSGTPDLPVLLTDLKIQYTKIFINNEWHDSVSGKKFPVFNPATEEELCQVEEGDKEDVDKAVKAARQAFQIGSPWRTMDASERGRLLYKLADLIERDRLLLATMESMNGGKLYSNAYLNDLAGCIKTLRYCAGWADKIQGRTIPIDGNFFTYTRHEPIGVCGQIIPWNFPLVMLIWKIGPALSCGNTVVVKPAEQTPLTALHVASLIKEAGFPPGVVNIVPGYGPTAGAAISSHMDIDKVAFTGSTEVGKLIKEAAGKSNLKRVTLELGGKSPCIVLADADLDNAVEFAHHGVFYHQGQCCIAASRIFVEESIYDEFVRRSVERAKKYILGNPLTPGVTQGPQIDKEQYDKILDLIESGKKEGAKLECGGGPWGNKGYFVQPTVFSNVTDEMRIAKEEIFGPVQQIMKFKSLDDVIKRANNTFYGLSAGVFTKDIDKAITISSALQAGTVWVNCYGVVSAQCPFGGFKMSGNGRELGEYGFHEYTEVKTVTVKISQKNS

Compound	activity, negative = inhibition	Potency
COc1ccc(C2=NOC(C(=O)N3CCCCCC3)C2)cc1OC (configuration not stated)	inactive: 12.2%	–
Cc1ccc(S(=O)(=O)NCCCCCC(=O)Nc2cccc(C)c2)cc1	–	inconclusive: 28.2 µM [inhibitor, single point]
Cn1cc(Cl)c(C(=O)NNC(=S)NCc2ccco2)n1	–	inconclusive: 25.1 µM [inhibitor, partial curve]
CC(=O)[C@H](C(c1ccccc1)N1CCOCC1)N1CCOCC1 (some centres not stated)	inactive: -3.8% [at 13.5 µM]	–
Cn1c(=O)[nH]c(=O)c2c1nc(N1CCCC1)n2CC(O)COc1ccccc1 (configuration not stated)	inactive: -12.6%	–
O=C(NC(=S)Nc1cccc(S(=O)(=O)NC2=NCCC2)c1)c1cc(-c2ccco2)nc2ccccc12	–	inconclusive: 14.1 µM [inhibitor, partial curve]
CCCC1Nc2ccc(C(=O)O)cc2C2C=CCC12 (configuration not stated)	–	inconclusive: 28.2 µM [inhibitor, single point]
COc1ccccc1OCCOc1ccc(/C=C2/C(=N)N3OC(C)=CC3=NC2=O)cc1OC	inactive: 4.43%	–
C/C(=N\NC(=O)Cc1cc(=O)[nH][nH]1)c1cccc([N+](=O)[O-])c1	–	inconclusive: 44.7 µM [inhibitor, single point]
CCOc1cccc(/C=N/NS(=O)(=O)c2ccc(C)c([N+](=O)[O-])c2)c1O	–	active: 3.98 µM
CCCCN(CCCC)Cc1ccc(C(=O)NN)o1	–	inconclusive: 39.8 µM [inhibitor, single point]
O=C(c1cc(COc2c(F)cccc2F)on1)N1CCC(c2ccccc2Cl)C1 (configuration not stated)	–	inconclusive: 5.62 µM [inhibitor, partial curve]
Cn1cccc1C(=O)N1CCC2(CC1)CN(C(=O)Nc1cccc(C#N)c1)C2	–	active: 28.2 µM
COc1ccc(CCN2C(=NC(=O)CC(C)C)SC3CS(=O)(=O)CC32)cc1 (configuration not stated)	–	inconclusive: 25.1 µM [inhibitor, single point]
O=C(O)c1c2c(nc3ccccc13)/C(=C/c1ccc(O)cc1)CC2	–	inconclusive: 39.8 µM [inhibitor, single point]
COc1ccc(-n2ncc3c(Nc4cccc(C)c4)ncnc32)cc1	–	inconclusive: 39.8 µM [inhibitor, single point]
O=C(NC1CCCC1)c1cnc2n(c1=O)CCS2	–	inconclusive: 14.1 µM [inhibitor, partial curve]
c1cc2c(cc1C1=NNC(=NC3CC3)SC1)OCCO2	–	active: 10 µM
CCOC(=O)c1c(NC(=O)COC(=O)Cn2cnc3ccccc32)sc2c1CCC(C)C2 (configuration not stated)	–	active: 7.94 µM
Cc1ccc(NC(=S)N(CCN2CCOCC2)Cc2ccccc2F)cc1	inactive: -7.5%	–
CC(C)(C)NS(=O)(=O)c1cc(C(=O)Nc2sccc2C#N)ccc1Cl	–	inconclusive: 22.4 µM [inhibitor, single point]
Cc1ccccc1CN(c1ccc(C(=O)N2CCCC2)cc1)S(C)(=O)=O	–	inconclusive: 22.4 µM [inhibitor, single point]
C/C(NC1CCCCC1)=C(/C#N)C(=O)NCCN1CCOCC1	inactive: -3.42%	–

Compound	activity, negative = inhibition	Potency
CC(C)c1ccccc1NC(=O)COC(=O)/C=C/c1cccc([N+](=O)[O-])c1	inactive: 3.24%	–
C=CCN1C(=O)C(O)(CC(=O)c2c(C)n[nH]c2C)c2cc(Br)ccc21 (configuration not stated)	–	inconclusive: 10 µM [inhibitor, partial curve]
Cn1c(=O)n(/N=C/c2ccccc2)c2ccccc21	–	inconclusive: 17.8 µM [inhibitor, partial curve]
COc1cc(OC)cc(C(=O)Nc2ccc(S(=O)(=O)Nc3nc(C)cc(C)n3)cc2)c1	–	inconclusive: 39.8 µM [inhibitor, single point]
CCOc1cccc(C(=O)NC(=S)NCc2cccnc2)c1	–	inconclusive: 15.8 µM [inhibitor, partial curve]
CSc1nnc2c(n1)OC(c1cn(C)c3ccccc13)N(C(C)=O)c1ccccc1-2 (configuration not stated)	–	active: 3.98 µM
CCOc1cc(C(=O)NC(C)C2CCCO2)cc(OCC)c1OCC (configuration not stated)	–	inconclusive: 39.8 µM [inhibitor, single point]
Fc1ccc(CSc2nnc(Cc3sc(-c4ccccc4)nc3-c3ccccc3)o2)cc1	inactive: -3.65%	–
COc1cc(C=O)ccc1OCCOCCOc1c(C)cc(Cl)cc1Cl	–	inconclusive: 0.224 µM [inhibitor, full curve, poor fit]
Cc1cc(C)c2nc(NC(=O)c3ccc4c(c3)OCO4)sc2c1	–	inconclusive: 39.8 µM [inhibitor, single point]
CC(C)C(Nc1ccc(C(F)(F)F)cc1[N+](=O)[O-])C(=O)O (configuration not stated)	–	inconclusive: 20 µM [inhibitor, partial curve]
Cc1csc(NC(=O)CSc2nnc(NC(=O)COc3ccccc3)s2)n1	inactive: 7.1%	–
Cc1nc2c(-c3ccccc3)c[nH]n2c(=O)c1Cc1ccccc1	–	inconclusive: 31.6 µM [inhibitor, partial curve]
COc1ccc(C2C(C(=O)Nc3cccnc3)=C(C)Nc3nc(-c4cccs4)nn32)cc1 (configuration not stated)	inactive: -7.1%	–
O=C(C[n+]1cc(-c2ccc(F)cc2)n2c1CCC2)N1c2ccccc2Sc2ccccc21	–	inconclusive: 25.1 µM [inhibitor, single point]
COc1cccc(Cn2c(=O)c(-c3cccc(C#N)c3)nc3cnc(N4CCOCC4)nc32)c1	–	inconclusive: 44.7 µM [inhibitor, single point]
CSCC[C@H](NC(=O)OC(C)(C)C)c1nnc(SCc2cccc(F)c2)o1	–	inconclusive: 35.5 µM [inhibitor, single point]
C=CCn1c(CNc2ccccc2)nnc1SCC(=O)N/N=C/c1ccccc1O	–	inconclusive: 28.2 µM [inhibitor, single point]
COc1ccc(CN2C(=O)c3ccccc3C2C(=O)NCCc2ccccc2)c(OC)c1 (configuration not stated)	–	inconclusive: 44.7 µM [inhibitor, single point]
CCN(CC)c1ncn(Cc2c(Cl)cccc2Cl)c2ncnc1-2	–	inconclusive: 39.8 µM [inhibitor, single point]
COc1ccc(CCNC(=O)c2cc(-c3ccc(Cl)c(Cl)c3)oc2C)cc1	inactive: -2.2%	–
COc1ccc(OC)c(N(CC(=O)Nc2cccc(C(F)(F)F)c2)S(C)(=O)=O)c1	inactive: -4.29%	–
Cc1cc(C)c(S(=O)(=O)n2c([N+](=O)[O-])cnc2C)c(C)c1	–	inconclusive: 28.2 µM [inhibitor, single point]

Compound	activity, negative = inhibition	Potency
Cc1cc(C(=O)COc2ccccc2C(N)=O)c(C)n1C1CC1	–	inconclusive: 28.2 µM [inhibitor, single point]
Cc1ccccc1C(=O)Nc1cccc(NC(=O)c2ccc(-c3ccc(Br)cc3)o2)c1	–	inconclusive: 39.8 µM [inhibitor, single point]
Cc1ccc(C)c(-n2nnnc2SCC(=O)c2c(N)n(C)c(=O)n(C)c2=O)c1	–	inconclusive: 0.562 µM [inhibitor, partial curve]
CNC(=O)c1sc(-c2cccs2)nc1C	–	inconclusive: 39.8 µM [inhibitor, single point]
C=CCNc1nc(-c2ccccc2)c(C(=O)OCC)cc1C#N	–	inconclusive: 20 µM [inhibitor, single point]
CN1CCN(NC(=O)c2cn(-c3ccccc3)nc2-c2cccs2)CC1	–	inconclusive: 31.6 µM [inhibitor, single point]
CCOC(=O)c1sc(S(C)(=O)=O)c2c1CCc1conc1-2	–	inconclusive: 14.1 µM [inhibitor, partial curve]
O=C(Nc1nccs1)c1cc2sccc2n1Cc1ccc(F)cc1	–	inconclusive: 39.8 µM [inhibitor, single point]
O=C(Cn1nc(C(F)(F)F)cc1C1CC1)NCc1ccccc1F	inactive: 2.94%	–
CCOCCCNC(=O)C(NC(=O)c1ccc(=O)[nH]c1)c1ccccc1 (configuration not stated)	–	inconclusive: 39.8 µM [inhibitor, single point]
CC(C)(C)SCCNC(=O)c1ccc(Cl)c([N+](=O)[O-])c1	–	inconclusive: 8.91 µM [inhibitor, single point]
CC1(C)CCC2=C(O1)c1ccccc1C(=O)C2=O	–	inactive and inconclusive: 39.8 µM [inhibitor, single point] and inconclusive: 14.1 µM [inhibitor, partial curve, poor fit]
COCCn1c(=S)[nH]c2cc(C(=O)N3CCN(c4ccccc4OC)CC3)ccc2c1=O	–	inconclusive: 39.8 µM [inhibitor, single point]
N[C@@H](Cc1cc(-c2ccc(Cl)cc2Cl)cc(CP(=O)(O)O)c1O)C(=O)O	–	inconclusive: 39.8 µM [inhibitor, single point]
O=[N+]([O-])c1cc([N+](=O)[O-])c(N2CCCCCC2)cc1NCCO	–	active: 2.24 µM
O=C(c1ccccn1)c1cc2ccccc2n1S(=O)(=O)c1ccccc1	–	inconclusive: 39.8 µM [inhibitor, single point]
COC(=O)C1C(O)=C(C=Nc2ccc3ccccc3c2)C(=O)CC1(C)C (configuration not stated)	–	inconclusive: 39.8 µM [inhibitor, single point]
C=C(C)CNC(=S)NNC(=O)CCn1c2ccc(Cl)cc2c2cc(Cl)ccc21	inactive: 8.7%	–
CCN(Cc1ccccc1)C(=O)CC1Oc2ccccc2NC1=O (configuration not stated)	–	inconclusive: 35.5 µM [inhibitor, single point]
Nc1cc(S(=O)(=O)O)cc2ccc(S(=O)(=O)O)cc12	–	inconclusive: 3.55 µM [inhibitor, single point]
O=C(O)CCCCCCNS(=O)(=O)c1ccccc1	–	inconclusive: 25.1 µM [inhibitor, partial curve]
